In the supplement of paper PMC4604168 (melanoma cell lines):
Some of the results follow. Single values are uncertain, as repeats are few or missing.

Assays:
Assay in all cases: cell count relative to DMSO control; melanoma cells; higher = more viable cells
Conditions in all cases: library dose: low library concentration; 72 h
MZ2-MEL = tested on: MZ2-MEL
MeWo = tested on: MeWo
RPMI7951 = tested on: RPMI7951
RVH-421 = tested on: RVH-421
SkMel28 = tested on: SkMel28
SkMel2 = tested on: SkMel2
SkMel30 = tested on: SkMel30
UACC62 = tested on: UACC62
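Further: cell number obtained by counting DAPI-stained nuclei in high-throughput microscope images with image analysis software, screen run in 1,536-well plates.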

SMILES	cell count (MZ2-MEL) [%]	cell count (MeWo) [%]	cell count (RPMI7951) [%]	cell count (RVH-421) [%]	cell count (SkMel28) [%]	cell count (SkMel2) [%]	cell count (SkMel30) [%]	cell count (UACC62) [%]
NC1(c2ccc(-c3nc4ccn5c(=O)[nH]nc5c4cc3-c3ccccc3)cc2)CCC1 + OCc1c[nH]c2ccccc12 [Indole-3-carbinol] (first compound 0.4 µM, partner dose 0.8 µM)	90.5	92.5	90.3	73.8	84	91	81.7	81.3
CS(=O)(=O)c1ccc(C(=O)Nc2ccc(Cl)c(-c3ccccn3)c2)c(Cl)c1 [vismodegib] + CNC(=O)c1cc(Oc2ccc(NC(=O)Nc3ccc(Cl)c(C(F)(F)F)c3)cc2)ccn1 [sorafenib] (first compound 1 µM, partner dose 0.4 µM)	87	99.3	91.3	119	99.7	103	102	110
CN(c1ncccc1CNc1nc(Nc2ccc3c(c2)CC(=O)N3)ncc1C(F)(F)F)S(C)(=O)=O + CS(=O)(=O)CCNCc1ccc(-c2ccc3ncnc(Nc4ccc(OCc5cccc(F)c5)c(Cl)c4)c3c2)o1 [lapatinib] (first compound 0.08 µM, partner dose 0.8 µM)	83.3	90.7	69.5	101	82.4	90.2	82	103
CS(=O)(=O)c1ccc(C(=O)Nc2ccc(Cl)c(-c3ccccn3)c2)c(Cl)c1 [vismodegib] + Cc1cc(Nc2cc(N3CCN(C)CC3)nc(/C=C/c3ccccc3)n2)n[nH]1 [ENMD2076] (first compound 1 µM, partner dose 0.04 µM)	100	96.2	96.9	88.9	108	102	87.6	77.5
CN(c1ncccc1CNc1nc(Nc2ccc3c(c2)CC(=O)N3)ncc1C(F)(F)F)S(C)(=O)=O + O=C(O)[C@@H]1[O][Sb](=[O])([O][Sb]2(=[O])[O][C@H]([C@H](O)CO)[C@H](O)[C@H](C(=O)O)[O]2)[O][C@H]([C@H](O)CO)[C@@H]1O [stibogluconate] (first compound 0.08 µM, partner dose 2 µM)	91.1	96.2	89.6	114	93.2	94.1	99.3	109
NC1(c2ccc(-c3nc4ccn5c(=O)[nH]nc5c4cc3-c3ccccc3)cc2)CCC1 + COCC[n+]1c2c(n(Cc3cnccn3)c1C)C(=O)c1ccccc1C2=O [YM155] (first compound 0.4 µM, partner dose 0.0004 µM)	48.9	76	94.2	81.8	65.3	71.9	68.4	77.5
NC1(c2ccc(-c3nc4ccn5c(=O)[nH]nc5c4cc3-c3ccccc3)cc2)CCC1 + Cn1c(=O)n(-c2ccc(C(C)(C)C#N)cc2)c2c3cc(-c4cnc5ccccc5c4)ccc3ncc21 [NVP-BEZ235] (first compound 0.4 µM, partner dose 0.004 µM)	91.5	64.6	73.1	81.5	69.1	67.7	64.6	65
